The source gives no read counts; variants with many changes may rest on few reads.

The chains are these.
B1: LINE1-full (parent)
chain: UACGUAGGUGGUUUUCCCCUGAUAGUGCUAAGGGGGCCUGGAAGUUUGGACUGGGCAGAGCUCAACACAGCGUGGCAAAGUGGCUGUGGCUAGACUGCCUCUCUGGAUUCCUCGUCACUCAGCAGGGCAUCUCUGAGAGAAAUGCC

In the data set the parent is B1. As to the kind of experiment: self-cleavage, relative activity (ratio to wild type); higher = more cleavage; in vitro, sequencing; the parent is a self-cleaving ribozyme.
For the variant UAUGUAGGUGGUUUUCCCCGGAUAGUGCUAAGGGGGCCUGGAAGUUUGGACUGGGCAGAGCUCAACACAGCGUGGCAAAGUGGCUGUGGCUAGACUGCCUCUCUGGAUUCCCCGUCACUCAGCAGGGCAUCUCUGAGAGAAAUGCC [C3U U20G U112C], the self-cleavage came out at 0.79.
The result for UACAUAGGUGGUUUUCCCCUGAUAGUGCUAAGGGGGCCUGGAAGUUUGGACUGGGCUGAGCUCAACACAGCGUGGCAAAGUGGCUGUGGCUAGACUGCCUCCCUGGAUUCCUCGUCACUCAGCAGGGCAUCUCUGAGAGGGAUGCC [G4A A57U U102C A140G A141G] reads 0.18; that for UAUGUAGGUGGUUUUCCCCUGAUAGUGCUAAGGGGGCCUGGAAGUUUGGACUGGGCAGAGCCCAACACAGCGUGGCAAAGUGGCUGUGGCUAGACUGCCUCUCUGGAUUCCUCAUCACUCAGCAGGGCACCUCUGAGAGAAAUGCC [C3U U62C G114A U130C], 0.05; that for UACAUAGGUGGUUUUCCCCUGAUAGUGCUAAUGGGGCCUGGAAGUUUGGACUGGGCAGAGCUCAACACAGCGUGGCAAAGUGGCUGUGGCUAGACUGCCUCUCUGGAUUCCUCGUCACCCAGCAGGGCAUCUCUGAGAGAAAUGCC [G4A G32U U119C], 0.81.
The figure for UACAUAGGUGGUUUUCCCCUGAUAGUGCUAAGGGGGCCUGGAAGUUUGGACUGGGCUGAGCUCUACACAGCGUGGCAAAGUGGCUGUGGCUAGACUGCCUCUCUGGAUUCCUCGUCACUCAGCAGGGCAUCUCUGGGAGAAAUGCC [G4A A57U A64U A136G] is 0.09; for UAUGUAGGUGGUUCUCCCCUGAUAGUGCUAAGGAGGCUUGGAAGCUUGGACUGGGCAGAGCUCAACACAGCGAGGCAAAGUGGCUGUGGCUAGACUGCCUCUCUGGAUUCCUCGUCACUCAGCAGGGCAUCUCUGAGAGAAAUGCC [C3U U14C G34A C38U U45C U73A] it is 1.04.
The figure for UACAUAGGUGGUUUUCCCCUGAUAGUGCUAAGGGGGCCUGGGAGUUUGGACUGGGCAGAGCUCAACACAGCGUGGCAAAGUGGCUGUGGCUAGACUGCCUCUCUGGAUUCCUCGUCACUCAGCAGGGCAUAUCUGAGAGAAAUGCC [G4A A42G C131A] is 0.64.
As for UACAUAGGUGGUUUUCCCCUGGUAGUGCUAAGGGGGCCUGGAGGUUUGGACUGGGCAGAGCUCAACACAGCGUGGCAAAGUGGCUGAGGCUAGACUGCCUCUCUGGAUUCCUCGUCACUCAGCAGGGCAUCUCUGAGAGAAAUGCC [G4A A22G A43G U87A], the self-cleavage is 0.19.
The result for UAUGUAGGUGGUUUUCCCCUGAUAGUGCUAAGGGGGCCAGGAAGUUUGGACUGGGCAGAGCCCAACACAGCGUGGCAAAGUGGCUGUGGCUAGACUGCCUCUCUGGAUUCCUCGUCACUCAGCAGGGCAUCUCUGAGAGAAAUGCC [C3U U39A U62C] reads 0.14; that for UAUGUAGGUGGUUUUCCCCUGAUAGUGCAAAGGGGGCUUGGAAGUUUGGACUGGGCAGAGCUCAACACAGCGUGGCAAAGUGGCUGUGGCUAGACUGCCUCUCUGGAUUCCUCGUCACUCAGCAGGGCAUCUCUGAGAGAAAUGCC [C3U U29A C38U], 0.77.
The result for UAUGUAGGUGGUUUUCCCCUGAUAGUGCUAAGGGGGCCUGGAAGUUUGGACUGGGCAGAGCUCAACACAGCGUGGCAAAGUGGCUGUGGCUAGACUGCCUCUCAGGGUUCCUCGUCACUCAGCAGGGCAUCUCUGAGAGAAAUGCC [C3U U104A A107G] reads 1.36; that for UAUGUAGGUGGUUUUCCCCUGAUAGUGCUAAGGGGGCCUGGAAGUUUGGACUGGGCAGAGCUCAACACAGCGUGGCAAAGUGGCUGUGGCUAGACUGCCUCCCCGGAUACCUCGUCACUCAGCAGGGCAUCUCUGAGAGAAAUGCC [C3U U102C U104C U109A], 0.93.
Regarding UAUGUAGGCGGUUUUCCCCUGAUAGUGCUAAGGGGGCCUGGAAGUUUGGACUGGGCAGAGCUCAACACAGCGUGGCAAAGUGGCUGUGGCUAGACUGCCUCUCUGGAUUCCUCGUCACUCAACAGGGCAUCUCUGAGAGUAAUGCC [C3U U9C G122A A140U], the self-cleavage stood at 1.02.
The result for UAUGUAGGUGGUAUUCCCCUGAUAGUGCUAAGGGGGCCUGGAAGUUUGGACUGGGCAGAGCUCAACACUGCGUGGCAAAGUGGCUGUGGCUAGACUGCCUCUCUGGAUUCCUCGUCACUCGGCAGGGCAACUCUGGGAGAAAUGCC [C3U U13A A69U A121G U130A A136G] reads 0.17; that for UACAUAGGUGGUUUUCCCCUGAUAGUGCUAAGGGGGCCUGGAAGUUUGGACUGGGCAGAGCUCGACACAGCGUGGCAAAGUGGCUGUGGCUAGACUGCCUCUCUGGAUUCCUCGUCACUCAGCAGGGCAUCUCUGAGAGAAACGCC [G4A A64G U143C], 0.26.
For UACAUAGGUGGUUUUCCCCUGAUAGUGCUACGGGGGCCUGGAAGUUUGGACUGGGCAGAGCUCAACACAGCGUGGCAAAGAGGCUGUGGCUAGACUGCCUCUCUGGAUUCCUCGUCACUCAGCAGGGCAUCUCUGAGAGGAAUGCC [G4A A31C U81A A140G], the self-cleavage amounted to 1.57.
For UACAUAGGUGGUUUUCCCCUGGUAGUGCUAAGGGGGCCUGGAAGUUUGGACUGGGCAGAGCUCAACACAGCGUGGCAAAGUGGCUGUGGCUAGACUGCCUCUCUGGAUUCCUCGUCACUCAGCAGGGCAUCUCUGGGAGAAAUGCC [G4A A22G A136G], the self-cleavage is 1.11.
In the case of UACAUAGGUGGUUUUCCCCUGAUAGUGCUAAGGGGGACUGGAAGUUUGGACUGGGCAGAGCUCAACACAGCGUGGCAAAGUGGCUGUGGCUAGACUGCCUCUCUGGGUUCCCCGUCACUCAGCAGGACAUCUCUGAGAGAAAUGCC [G4A C37A A107G U112C G127A], the self-cleavage came to 1.32.
Turning to UACAUAGGUGGUUUUCCCCUGAUAGUGCUAAGGGGCCCUGGGAGUUUGGACUGGGCAGAGCUCAACACAGCGUGGCAAAGUGGCUGUGGCUAGACUGCCUCUCUGGAUUCCUCGUCACUCAGCAGGGCAUCUCUGAGAGAAAUGCC [G4A G36C A42G], the self-cleavage stood at 0.94.

Values taken from the RNAGym collection of RNA variant scans (doi:10.7554/elife.90254).
